Source: patent publication US20240358826A1 (ORIONIS BIOSCIENCES, published 2024)

T1: IL-1R (IL-1 Receptor) (UniProt P14778 18-569, limits assumed)
T1 sequence (looked up): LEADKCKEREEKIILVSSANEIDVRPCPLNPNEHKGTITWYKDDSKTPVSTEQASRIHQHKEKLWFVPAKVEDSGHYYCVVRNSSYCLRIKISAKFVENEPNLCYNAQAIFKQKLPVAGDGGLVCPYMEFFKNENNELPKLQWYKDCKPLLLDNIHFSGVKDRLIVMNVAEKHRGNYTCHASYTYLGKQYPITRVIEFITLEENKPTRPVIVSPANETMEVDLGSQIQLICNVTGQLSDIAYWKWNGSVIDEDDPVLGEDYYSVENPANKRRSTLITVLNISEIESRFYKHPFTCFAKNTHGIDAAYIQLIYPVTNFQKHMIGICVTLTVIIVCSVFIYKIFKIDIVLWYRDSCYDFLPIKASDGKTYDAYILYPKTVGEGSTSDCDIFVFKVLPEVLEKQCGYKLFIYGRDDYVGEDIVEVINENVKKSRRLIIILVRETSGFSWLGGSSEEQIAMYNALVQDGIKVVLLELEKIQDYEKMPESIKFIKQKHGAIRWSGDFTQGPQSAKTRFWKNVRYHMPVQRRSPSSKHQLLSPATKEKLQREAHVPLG

B1: CD8 VHH_5GGS_Fc_hole + Fc-knob_20GGS_IL1α delta 1-6_I18G (Fc fusion)
chain 1: DVQLQESGGGLVQPGGSLRLSCAASGSIFSINVMGWYRQTPGKERELVAKITNFGITSYADSAQGRFTISRGNAKNTVYLQMNSLKPEDTAVYYCNLDTTGWGPPPYQYWGQGTQVTVSSGGSGGSGGSGGSGGSDKTHTCPPCPAPEAAGGPSVFLFPPKPKDTLMISRTPEVTCVVVDVSHEDPEVKFNWYVDGVEVHNAKTKPREEQYNSTYRVVSVLTVLHQDWLNGKEYKCQVSNKALPAPIEKTISKAKGQPREPQVCTLPPSRDELTKNQVSLSCAVKGFYPSDIAVEWESNGQPENNYKTTPPVLDSDGSFFLVSKLTVDKSRWQQGNVFSCSVMHEALHNHYTQKSLSLSPGK
chain 2: [letters of human IgG1 Fc with changes not shown]GGSGGSGGSGGSGGSGGSGGSGGSGGSGGSGGSGGSGGSGGSGGSGGSGGSGGSGGSGGSLSNVKYNFMRIGKYEFILNDALNQSIIRANDQYLTAAALHNLDEAVKFDMGAYKSSKDDAKITVILRISKTQLYVTAQDEDQPVLLKEMPEIPKTITGSETNLLFFWETHGTKNYFTSVAHPNLFIATKQDYWVCLAGGPPSITDFQILENQA
B2: CD8 VHH_5GGS_Fc_hole + Fc-knob_20GGS_IL1α delta 1-6_N25A (Fc fusion)
chain 1: B1 chain 1
chain 2: [letters of human IgG1 Fc with changes not shown]GGSGGSGGSGGSGGSGGSGGSGGSGGSGGSGGSGGSGGSGGSGGSGGSGGSGGSGGSGGSLSNVKYNFMRIIKYEFILADALNQSIIRANDQYLTAAALHNLDEAVKFDMGAYKSSKDDAKITVILRISKTQLYVTAQDEDQPVLLKEMPEIPKTITGSETNLLFFWETHGTKNYFTSVAHPNLFIATKQDYWVCLAGGPPSITDFQILENQA
B3: CD8 VHH_5GGS_Fc_hole + Fc-knob_20GGS_IL1α delta 1-6_N25G (Fc fusion)
chain 1: B1 chain 1
chain 2: [letters of human IgG1 Fc with changes not shown]GGSGGSGGSGGSGGSGGSGGSGGSGGSGGSGGSGGSGGSGGSGGSGGSGGSGGSGGSGGSLSNVKYNFMRIIKYEFILGDALNQSIIRANDQYLTAAALHNLDEAVKFDMGAYKSSKDDAKITVILRISKTQLYVTAQDEDQPVLLKEMPEIPKTITGSETNLLFFWETHGTKNYFTSVAHPNLFIATKQDYWVCLAGGPPSITDFQILENQA
B4: CD8 VHH_5GGS_Fc_hole + Fc-knob_20GGS_IL1α delta 1-6_L28A (Fc fusion)
chain 1: B1 chain 1
chain 2: [letters of human IgG1 Fc with changes not shown]GGSGGSGGSGGSGGSGGSGGSGGSGGSGGSGGSGGSGGSGGSGGSGGSGGSGGSGGSGGSLSNVKYNFMRIIKYEFILNDAANQSIIRANDQYLTAAALHNLDEAVKFDMGAYKSSKDDAKITVILRISKTQLYVTAQDEDQPVLLKEMPEIPKTITGSETNLLFFWETHGTKNYFTSVAHPNLFIATKQDYWVCLAGGPPSITDFQILENQA
B5: CD8 VHH_5GGS_Fc_hole + Fc-knob_20GGS_IL1α delta 1-6_L28G (Fc fusion)
chain 1: B1 chain 1
chain 2: [letters of human IgG1 Fc with changes not shown]GGSGGSGGSGGSGGSGGSGGSGGSGGSGGSGGSGGSGGSGGSGGSGGSGGSGGSGGSGGSLSNVKYNFMRIIKYEFILNDAGNQSIIRANDQYLTAAALHNLDEAVKFDMGAYKSSKDDAKITVILRISKTQLYVTAQDEDQPVLLKEMPEIPKTITGSETNLLFFWETHGTKNYFTSVAHPNLFIATKQDYWVCLAGGPPSITDFQILENQA
B6: CD8 VHH_5GGS_Fc_hole + Fc-knob_20GGS_IL1α delta 1-6_I33A (Fc fusion)
chain 1: B1 chain 1
chain 2: [letters of human IgG1 Fc with changes not shown]GGSGGSGGSGGSGGSGGSGGSGGSGGSGGSGGSGGSGGSGGSGGSGGSGGSGGSGGSGGSLSNVKYNFMRIIKYEFILNDALNQSIARANDQYLTAAALHNLDEAVKFDMGAYKSSKDDAKITVILRISKTQLYVTAQDEDQPVLLKEMPEIPKTITGSETNLLFFWETHGTKNYFTSVAHPNLFIATKQDYWVCLAGGPPSITDFQILENQA
B7: CD8 VHH_5GGS_Fc_hole + Fc-knob_20GGS_IL1α delta 1-6_I33G (Fc fusion)
chain 1: B1 chain 1
chain 2: [letters of human IgG1 Fc with changes not shown]GGSGGSGGSGGSGGSGGSGGSGGSGGSGGSGGSGGSGGSGGSGGSGGSGGSGGSGGSGGSLSNVKYNFMRIIKYEFILNDALNQSIGRANDQYLTAAALHNLDEAVKFDMGAYKSSKDDAKITVILRISKTQLYVTAQDEDQPVLLKEMPEIPKTITGSETNLLFFWETHGTKNYFTSVAHPNLFIATKQDYWVCLAGGPPSITDFQILENQA
B8: CD8 VHH_5GGS_Fc_hole + Fc-knob_20GGS_IL1α delta 1-6_A44G (Fc fusion)
chain 1: B1 chain 1
chain 2: [letters of human IgG1 Fc with changes not shown]GGSGGSGGSGGSGGSGGSGGSGGSGGSGGSGGSGGSGGSGGSGGSGGSGGSGGSGGSGGSLSNVKYNFMRIIKYEFILNDALNQSIIRANDQYLTAAGLHNLDEAVKFDMGAYKSSKDDAKITVILRISKTQLYVTAQDEDQPVLLKEMPEIPKTITGSETNLLFFWETHGTKNYFTSVAHPNLFIATKQDYWVCLAGGPPSITDFQILENQA
B9: CD8 VHH_5GGS_Fc_hole + Fc-knob_20GGS_IL1α delta 1-6_A44S (Fc fusion)
chain 1: B1 chain 1
chain 2: [letters of human IgG1 Fc with changes not shown]GGSGGSGGSGGSGGSGGSGGSGGSGGSGGSGGSGGSGGSGGSGGSGGSGGSGGSGGSGGSLSNVKYNFMRIIKYEFILNDALNQSIIRANDQYLTAASLHNLDEAVKFDMGAYKSSKDDAKITVILRISKTQLYVTAQDEDQPVLLKEMPEIPKTITGSETNLLFFWETHGTKNYFTSVAHPNLFIATKQDYWVCLAGGPPSITDFQILENQA
B10: CD8 VHH_5GGS_Fc_hole + Fc-knob_20GGS_IL1α delta 1-6_A44H (Fc fusion)
chain 1: B1 chain 1
chain 2: [letters of human IgG1 Fc with changes not shown]GGSGGSGGSGGSGGSGGSGGSGGSGGSGGSGGSGGSGGSGGSGGSGGSGGSGGSGGSGGSLSNVKYNFMRIIKYEFILNDALNQSIIRANDQYLTAAHLHNLDEAVKFDMGAYKSSKDDAKITVILRISKTQLYVTAQDEDQPVLLKEMPEIPKTITGSETNLLFFWETHGTKNYFTSVAHPNLFIATKQDYWVCLAGGPPSITDFQILENQA
B11: CD8 VHH_5GGS_Fc_hole + Fc-knob_20GGS_IL1α delta 1-6_A44N (Fc fusion)
chain 1: B1 chain 1
chain 2: [letters of human IgG1 Fc with changes not shown]GGSGGSGGSGGSGGSGGSGGSGGSGGSGGSGGSGGSGGSGGSGGSGGSGGSGGSGGSGGSLSNVKYNFMRIIKYEFILNDALNQSIIRANDQYLTAANLHNLDEAVKFDMGAYKSSKDDAKITVILRISKTQLYVTAQDEDQPVLLKEMPEIPKTITGSETNLLFFWETHGTKNYFTSVAHPNLFIATKQDYWVCLAGGPPSITDFQILENQA
B12: CD8 VHH_5GGS_Fc_hole + Fc-knob_20GGS_IL1α delta 1-6_H46A (Fc fusion)
chain 1: B1 chain 1
chain 2: [letters of human IgG1 Fc with changes not shown]GGSGGSGGSGGSGGSGGSGGSGGSGGSGGSGGSGGSGGSGGSGGSGGSGGSGGSGGSGGSLSNVKYNFMRIIKYEFILNDALNQSIIRANDQYLTAAALANLDEAVKFDMGAYKSSKDDAKITVILRISKTQLYVTAQDEDQPVLLKEMPEIPKTITGSETNLLFFWETHGTKNYFTSVAHPNLFIATKQDYWVCLAGGPPSITDFQILENQA
B13: CD8 VHH_5GGS_Fc_hole + Fc-knob_20GGS_IL1α delta 1-6_H46G (Fc fusion)
chain 1: B1 chain 1
chain 2: [letters of human IgG1 Fc with changes not shown]GGSGGSGGSGGSGGSGGSGGSGGSGGSGGSGGSGGSGGSGGSGGSGGSGGSGGSGGSGGSLSNVKYNFMRIIKYEFILNDALNQSIIRANDQYLTAAALGNLDEAVKFDMGAYKSSKDDAKITVILRISKTQLYVTAQDEDQPVLLKEMPEIPKTITGSETNLLFFWETHGTKNYFTSVAHPNLFIATKQDYWVCLAGGPPSITDFQILENQA

Molecular target: T1, IL-1R (IL-1 Receptor)
Assay: cell-based or functional assay

Row | Binder | NF-KB signal, -CD8 cells, 1 ng/ml | NF-KB signal, -CD8 cells, 10 ng/ml | NF-KB signal, -CD8 cells, 100 ng/ml | NF-KB signal, -CD8 cells, 1000 ng/ml
1 | B1 | 0.01 rel. to 100 ng/ml IL1α | 0.02 rel. to 100 ng/ml IL1α | 0.01 rel. to 100 ng/ml IL1α | 0.05 rel. to 100 ng/ml IL1α
2 | B2 | 0.02 rel. to 100 ng/ml IL1α | 0.01 rel. to 100 ng/ml IL1α | 0.14 rel. to 100 ng/ml IL1α | 0.75 rel. to 100 ng/ml IL1α
3 | B3 | – | 0.02 rel. to 100 ng/ml IL1α | 0.15 rel. to 100 ng/ml IL1α | 0.83 rel. to 100 ng/ml IL1α
4 | B4 | 0.01 rel. to 100 ng/ml IL1α | 0.07 rel. to 100 ng/ml IL1α | 0.58 rel. to 100 ng/ml IL1α | 1.11 rel. to 100 ng/ml IL1α
5 | B5 | 0.01 rel. to 100 ng/ml IL1α | 0.03 rel. to 100 ng/ml IL1α | 0.2 rel. to 100 ng/ml IL1α | 1.02 rel. to 100 ng/ml IL1α
6 | B6 | 0.02 rel. to 100 ng/ml IL1α | 0.01 rel. to 100 ng/ml IL1α | 0.07 rel. to 100 ng/ml IL1α | 0.64 rel. to 100 ng/ml IL1α
7 | B7 | 0.02 rel. to 100 ng/ml IL1α | 0.01 rel. to 100 ng/ml IL1α | 0.04 rel. to 100 ng/ml IL1α | 0.58 rel. to 100 ng/ml IL1α
8 | B8 | 0.01 rel. to 100 ng/ml IL1α | 0.02 rel. to 100 ng/ml IL1α | 0.11 rel. to 100 ng/ml IL1α | –
9 | B9 | 0.01 rel. to 100 ng/ml IL1α | 0.02 rel. to 100 ng/ml IL1α | 0.12 rel. to 100 ng/ml IL1α | 0.97 rel. to 100 ng/ml IL1α
10 | B10 | 0.01 rel. to 100 ng/ml IL1α | 0.02 rel. to 100 ng/ml IL1α | 0.18 rel. to 100 ng/ml IL1α | 1.03 rel. to 100 ng/ml IL1α
11 | B11 | 0.01 rel. to 100 ng/ml IL1α | 0.01 rel. to 100 ng/ml IL1α | 0.12 rel. to 100 ng/ml IL1α | 0.86 rel. to 100 ng/ml IL1α
12 | B12 | 0.01 rel. to 100 ng/ml IL1α | 0.02 rel. to 100 ng/ml IL1α | 0.01 rel. to 100 ng/ml IL1α | 0.23 rel. to 100 ng/ml IL1α
13 | B13 | 0.01 rel. to 100 ng/ml IL1α | 0.01 rel. to 100 ng/ml IL1α | 0.02 rel. to 100 ng/ml IL1α | 0.31 rel. to 100 ng/ml IL1α
